{
  "source": "patent US12280121B2",
  "about": "“Immunoconjugates and methods” (Immunome, Inc., priority 2021, dated 2025)",
  "key": {"[1]": {"target": "T1, Mouse ROR1-His (Mus musculus, UniProt Q9Z139)", "T1 construct": "His", "T1 sequence (Q9Z139 30-937)": "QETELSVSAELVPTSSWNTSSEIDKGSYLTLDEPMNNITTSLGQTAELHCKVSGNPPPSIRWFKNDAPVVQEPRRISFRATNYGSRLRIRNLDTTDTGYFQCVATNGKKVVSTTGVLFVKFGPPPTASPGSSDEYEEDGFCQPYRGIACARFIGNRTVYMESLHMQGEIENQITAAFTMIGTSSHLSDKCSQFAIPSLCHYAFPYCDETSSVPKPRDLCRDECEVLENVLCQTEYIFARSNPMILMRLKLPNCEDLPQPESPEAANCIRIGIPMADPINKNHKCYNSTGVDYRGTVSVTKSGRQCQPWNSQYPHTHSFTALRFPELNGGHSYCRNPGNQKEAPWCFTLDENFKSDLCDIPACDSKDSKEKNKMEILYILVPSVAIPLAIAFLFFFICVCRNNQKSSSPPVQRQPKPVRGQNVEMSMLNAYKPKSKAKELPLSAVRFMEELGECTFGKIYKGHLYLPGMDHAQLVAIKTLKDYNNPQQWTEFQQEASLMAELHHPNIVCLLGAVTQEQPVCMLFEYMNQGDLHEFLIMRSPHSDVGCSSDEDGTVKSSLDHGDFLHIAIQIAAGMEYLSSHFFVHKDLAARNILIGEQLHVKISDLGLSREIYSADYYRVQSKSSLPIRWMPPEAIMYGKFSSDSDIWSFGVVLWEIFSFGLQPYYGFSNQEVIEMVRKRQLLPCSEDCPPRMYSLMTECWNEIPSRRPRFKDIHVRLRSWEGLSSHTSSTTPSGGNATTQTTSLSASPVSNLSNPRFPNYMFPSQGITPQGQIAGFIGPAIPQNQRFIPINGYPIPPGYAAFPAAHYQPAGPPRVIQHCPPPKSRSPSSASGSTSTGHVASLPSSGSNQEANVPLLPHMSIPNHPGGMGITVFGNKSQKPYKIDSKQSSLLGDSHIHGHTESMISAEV", "assay": "Biochemical binding to purified protein measured by SPR, Mouse ROR1-His", "experimental": "(§1) An initial assessment of antibody developability was performed by AC-SINS to evaluate the potential for self-interaction (FIG. 30). […] TABLES 2-5 provide this antibody characterization data in comparison to the known ROR-1 binding antibody UC961 including tabled results for biochemical binding to purified proteins and measured by SPR (TABLES 2-5), cellular binding to ROR-1 positive cell lines JeKo-1 and MDA-MB-468 (EC50) (TABLE 6), and cellular internalization (% internalized) (TABLE 7)."}, "[2]": {"target": "T2, ROR-1 on JeKo-1 cells (Homo sapiens, UniProt Q01973)", "T2 construct": "endogenous in cells; host or cells: JeKo-1", "assay": "Cell binding saturation assay (flow cytometry), JeKo-1", "conditions": "FIG. 27, MFI by flow cytometry", "text": "FIG. 27 illustrates a measurement of cell binding saturation data for the anti-ROR-1 antibodies generated by the methods described herein. […] Cells were washed, stained with secondary antibody and cell binding saturation was detected by flow cytometry and reported as mean fluorescent intensity (MFI).\nA cell binding saturation assay was developed to evaluate how well the anti_ROR-1 antibodies developed in Example 28 bound to endogenously expressed extracellular ROR-1 protein on cell lines. […] Briefly, two ROR-1 positive cell lines, JeKo-1 and MDA-MB-468, were incubated in a titration series concentration of each antibody construct. Cells were then washed and subjected to secondary antibody staining and detection by flow cytometry. Mean fluorescence (MFI) was determined by analysis on cytometer software. […] (See FIG. 27)."}, "[3]": {"target": "T3, Hu/Cy/Rh ROR1-His (Homo sapiens, UniProt Q01973)", "T3 construct": "His", "assay": "Biochemical binding to purified protein measured by SPR, Hu/Cy/Rh ROR1-His", "parameters": "species or system human/cyno/rhesus", "experimental": "as §1"}},
  "data": [
    {"molecule": "ATX-P-885: anti-ROR-1 monoclonal antibody; heavy chain SEQ ID NO:21, light chain SEQ ID NO:28 (antibody) heavy: QVQLQQWGAGLLKPSETLSLTCAVYGGSFSGYYWSWIRQPPGKGLEWIGEINHSGSTNYNPSLKSRVTISVDTSKNQFSLKLSSVTAADTAVYYCAREGVYEDYWGQGTLVTVSSASTKGPSVFPLAPSSKSTSGGTAALGCLVKDYFPEPVTVSWNSGALTSGVHTFPAVLQSSGLYSLSSVVTVPSSSLGTQTYICNVNHKPSNTKVDKRV[omitted - human IgG1 Fc] light: EIVLTQSPATLSLSPGERATLSCRASQSVSNYLAWYQQKPGQAPRLLIYDAYNRATGIPARFSGSGSGTDFTLTISSLEPEDFAVYYCQQRSNWPLTFGQGTRLEIKRTVAAPSVFIFPPSDEQLKSGTASVVCLLNNFYPREAKVQWKVDNALQSGNSQESVTEQDSKDSTYSLSSTLTLSKADYEKHKVYACEVTHQGLSSPVTKSFNRGEC", "values": [
      {"measurement": "Rmax (RU)", "setting": "[1]", "value": 73.5, "unit": "RU"},
      {"measurement": "ka (M − 1 s − 1)", "setting": "[1]", "value": "2.92E+04", "unit": "M − 1 s − 1"},
      {"measurement": "kd (s − 1)", "setting": "[1]", "value": "1.32E−03", "unit": "s − 1"},
      {"measurement": "cell binding saturation compared to UC961", "setting": "[2]", "value": "comparable to the cell binding saturation for UC961"},
      {"measurement": "concentration needed to achieve binding saturation compared to UC961", "setting": "[2]", "value": "improved"},
      {"measurement": "Rmax (RU)", "setting": "[3]", "value": 341.6, "unit": "RU"},
      {"measurement": "ka (M − 1 s − 1)", "setting": "[3]", "value": "2.70E+05", "unit": "M − 1 s − 1"},
      {"measurement": "kd (s − 1)", "setting": "[3]", "value": "2.95E−03", "unit": "s − 1"}
    ]}
  ]
}
